# From PubChem BioAssay AID1347120 (National Center for Advancing Translational Sciences (NCATS), 2019)
# Among all 390,000 compounds or so, about 930 (0.24%) were called active. Inconclusive means that the source gave no clear call. Such entries were picked first, then a sample of the others. Calls come from the whole dose curve; as a rule, active = well fitted activation curve with a large enough effect; inconclusive = small, poorly fitted or top-dose-only effect; inactive = no such curve, though single readings can be large or run the other way. Potencies beside an inconclusive call are fits to weak or partial responses and may not hold up.
# Test: qHTS for Suppressors of FUS Proteinopathy: Primary screen using FUS-linked yeast assay; note: nearly all actives have a fitted effect of over 55% in size;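 for growth rescue (activation): plate controls were DMSO vehicle for no effect and reference control for full effect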
# Conditions: S. cerevisiae FUS-expressing, OD600, 24 h; Potency: growth rescue; growth rescue (activation): at 76.6 µM (top of the series)
# In short: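 Galactose (2%) drives FUS expression in yeast precultured in raffinose; seeding density OD 0.005. Test compounds incubated 24hr at 30C and 99% humidity before absorbance at 600 nm was measured.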
# Potency is the fitted concentration of half-maximal effect; tags give direction and shape of the fitted curve.
Structure (SMILES),Potency,growth rescue (activation)
O=C(Nc1cccc(Br)c1)c1cccc(OC(=S)N2CCOCC2)c1,"inconclusive: 50.1 µM [activator, single point]",–
COc1ccc(Nc2nc(N)nc(CSc3nnc(C)s3)n2)cc1,–,inactive: 12.4%
CCc1ccccc1NC(=O)N1CC(CC)Oc2ccc(Cl)cc21 (stereo unspecified),"inconclusive: 14.1 µM [activator, partial curve, poor fit]",–
COc1ccc2ccccc2c1CN1CCN(Cc2ccccc2)CC1,–,inactive: 8.54%
CC(C)n1cnc2c(NCc3ccccc3)cc(N[C@H](C)CO)cc21,"inconclusive: 35.5 µM [activator, single point]",–
CCCCCCN1CCS(=O)(=O)N(Cc2ccc(F)cc2)C(C(=O)OC)C1 (stereo unspecified),"inconclusive: 35.5 µM [activator, single point]",–
COC(=O)[C@]12C[C@H](CC(=O)N3CCCC3)C(=O)N(Cc3ccc(Cl)cc3Cl)C1=C[C@H](C(C)C)O[C@@H]2C1CC1,"inconclusive: 25.1 µM [activator, single point]",–
CCOC(=O)N1CCc2c(sc3c2c(=O)n(CCc2ccccc2)c(=O)n3Cc2ccc(C)cc2C)C1,–,inactive: -9.08%
CCC(=O)N1CCc2cc(Br)cc(S(=O)(=O)N3CCCC(C(=O)NC(C)(C)C)C3)c21 (stereo unspecified),–,inactive: 29.6%
CC(C)CN1C(=O)C[C@@]2(C(=O)N(C)c3ccc(NS(=O)(=O)c4ccc(F)cc4)cc32)C1c1ccccc1 (stereo partly specified),–,inactive: 33.8%
CCCCOCCCNC(=O)C[C@H]1C[C@@]2(C(=O)OC)C(=C[C@H](C(C)C)O[C@@H]2C2CC2)N(CCc2ccc(OC)c(OC)c2)C1=O,"inconclusive: 11.2 µM [activator, partial curve]",–
N#CC(c1cccc([N+](=O)[O-])c1)C(CC(=O)c1ccccc1)c1ccccc1 (stereo unspecified),"inconclusive: 50.1 µM [activator, single point]",–
CCCn1c(CCC(=O)O)ccc1-c1ccc(OC)cc1,"inconclusive: 25.1 µM [activator, single point]",–
Cc1ccc(-c2csc(N3CCN(c4cc5c(cc4Cl)nc(-c4ccncc4)n5CCOCCO)CC3)n2)cc1,"inconclusive: 25.1 µM [activator, single point]",–
NC(c1csc(Nc2nccc(C(F)(F)F)n2)n1)C1CCCCC1 (stereo unspecified),–,inactive: 4.73%
O=C(C1CCCN(S(=O)(=O)c2cccs2)C1)N1CCN(c2ccccc2F)CC1 (stereo unspecified),–,inactive: 30.8%
CCC(C)(C)NC(=O)C(c1ccc(OC)cc1)N(C(=O)CCC(=O)Nc1cc(C)on1)c1ccc2c(c1)OCO2 (stereo unspecified),"inconclusive: 28.2 µM [activator, single point]",–
COc1ccc(CCNc2nc(-c3sc(N)nc3C)cs2)cc1OC,"inconclusive: 31.6 µM [activator, partial curve, poor fit]",–
Cc1ccc(Cn2c(C)c(CNCc3ccccc3F)c(C(=O)O)c2C)cc1,–,inactive: 1.47%
COc1ccc(CNC(=O)O[C@H]2CN(C(=O)OC(C)C)N(C(=O)OC(C)C)[C@@H]3CN(S(=O)(=O)c4ccc(C)cc4)C[C@]23O)cc1OC,"inconclusive: 15.8 µM [activator, partial curve]",–
COCCNC(=O)c1cc2c(c(-c3cccc(-c4cc5ccccc5o4)c3)n1)[C@H](CCO)N(S(=O)C(C)(C)C)C2 (stereo partly specified),–,inactive: 29.6%

Structure (SMILES),Potency,growth rescue (activation)
CCOC(=O)c1ccc(N2C(=O)c3n[nH]c(-c4ccco4)c3C2c2cccc(F)c2)cc1 (stereo unspecified),"inconclusive: 28.2 µM [activator, single point]",–
O=C(Nc1ccc(Cl)cc1)[C@@H]1[C@@H]2C(=O)N(c3ccc4ccccc4c3)C(=O)[C@@H]2[C@H]2C=CC=NN21,"inconclusive: 20 µM [activator, partial curve, poor fit]",–
O=C(Cc1cccc(NC(=O)C2CCCN(C(=O)CCc3ccccc3)C2)c1)Nc1cccc(C(=O)N2CCCCC2)c1 (stereo unspecified),"inconclusive: 14.1 µM [activator, partial curve, poor fit]",–
COc1ccccc1N1CCN(C(=O)CSc2nc(C)c(Cc3ccccc3)c(=O)[nH]2)CC1,"inconclusive: 17.8 µM [activator, partial curve, poor fit]",–
CCSC(=O)N(CC)CC(=O)Nc1c(CC)cccc1CC,–,inconclusive: 84.8% [activator]
COc1ccc(C(C(=O)NC2CCCCC2)n2c(=O)c(-c3ccco3)nc3ccccc32)cc1 (stereo unspecified),"inconclusive: 7.08 µM [activator, partial curve]",–
COc1cccc(C2C(C#N)=C(N)OC3=C2C(=O)CC(c2ccco2)C3)c1OCc1ccc(F)cc1 (stereo unspecified),"inconclusive: 39.8 µM [activator, partial curve, poor fit]",–
COc1ccc(NC(=O)CSc2nc(O)cc(=O)n2-c2ccccc2OC)cc1,"inconclusive: 25.1 µM [activator, single point]",–
O=C(CN1C(=O)COc2ccc(S(=O)(=O)N3CCCCCC3)cc21)N1CCN(c2cccc(Cl)c2)CC1,"inconclusive: 8.91 µM [activator, partial curve, poor fit]",–
Cc1nn(-c2ccc(Cl)cc2)c(N)c1C(O)(CSc1nccn1C)C(F)(F)F (stereo unspecified),"inconclusive: 15.8 µM [activator, partial curve]",–
COc1ccc(CCNC(=O)c2cc3cccc4c3n2CC(C)S4)c(OC)c1OC (stereo unspecified),"inconclusive: 20 µM [activator, single point]",–
CC(C)(C)c1ccc(C(=O)Nc2ccc3nc(SCC(=O)N4CCCC4)sc3c2)cc1,"inconclusive: 35.5 µM [activator, single point]",–
COCCCNC(=S)N1CCN(c2nc(C)nc3sc4c(c23)CCCC4)CC1,"inconclusive: 35.5 µM [activator, single point]",–
CCCCN(C(=O)CSc1cc(C)c2ccccc2n1)c1c(N)n(Cc2ccccc2)c(=O)[nH]c1=O,"inconclusive: 31.6 µM [activator, partial curve, poor fit]",–
CC1(C)Oc2ccc3ccc(=O)oc3c2/C(=C/Nc2ccc(O)cc2)C1=O,–,inactive: 3.66%
Cc1cc(C)cc(N(CC(=O)Nc2ccc(C(F)(F)F)cc2)S(=O)(=O)c2c(C)[nH]c(=O)[nH]c2=O)c1,inactive,–
COc1ccccc1-c1nnc(SC/C(O)=C(\C#N)c2nc3ccccc3[nH]2)n1C1CCCCC1,active: 28.2 µM,–
COCC(=O)N(C)[C@H]1C[C@H]2c3[nH]c4cccc(-c5cccc(F)c5)c4c3CCN2C(=O)[C@H]1[C@H](C)O,–,inactive: 38.4%
COc1ccc(/C=C(\NC(=O)c2ccccc2)C(=O)NC2CCCCC2)cc1,–,inactive: 3.7%
CC(C)(C)OC(=O)C[C@H]1C/C=C\C[C@@H](CC(=O)N[C@H](CO)Cc2ccccc2)C(=O)NC[C@@H](c2ccccc2)OC1=O,"inconclusive: 14.1 µM [activator, partial curve]",–
COc1ccccc1N1CCN(C(c2ccccc2)c2nnnn2CCc2ccccc2)CC1 (stereo unspecified),"inconclusive: 17.8 µM [activator, single point]",–

Structure (SMILES),Potency,growth rescue (activation)
CCCCNc1c(-c2ccc(OC)c(SC3CCCCC3)c2)nc2cnccn12,active: 31.6 µM,–
CC(=O)c1cccc(-n2c(CCC(=O)O)ccc2-c2ccccc2)c1,"inconclusive: 35.5 µM [activator, partial curve]",–
CC(C)C(NC(=O)c1ccccc1)C(=O)NC1CCCc2ccccc21 (stereo unspecified),–,inactive: 5.77%
CCOC(=O)C1CCN(C(=O)c2ccc3c(c2)sc2nc(-c4ccc(OCC)cc4)cn23)CC1,"inconclusive: 25.1 µM [activator, single point]",–
COc1ccc(CNC(=O)c2cnn(-c3ccc(C)cc3)c2C2CCN(C(=O)OC(C)(C)C)CC2)cc1,"inconclusive: 15.8 µM [activator, partial curve, poor fit]",–
Cc1ccc(-n2ncc3c(Nc4ccc5c(c4)OCCO5)ncnc32)cc1C,–,inactive: -13.6%
CCN(C(=O)CN1C(=O)S/C(=C\c2ccccc2OC)C1=O)C1CCS(=O)(=O)C1 (stereo unspecified),"inconclusive: 35.5 µM [activator, single point]",–
CCN1C(=O)/C(=C/c2cc(C)n(C)c2C)SC1=Nc1ccc(OC)cc1,"inconclusive: 31.6 µM [activator, single point]",–
COc1ccc(-c2cc(-n3c(C(F)(F)F)nc4ccccc43)n(CCC#N)n2)cc1,"inconclusive: 39.8 µM [activator, single point]",–
C=Cc1ccc(CSc2nc(-c3ccc(Cl)cc3)nc3c2Cc2c(CO)cnc(C)c2O3)cc1,–,inactive: 4.32%
CCOc1ccc(-n2c(-c3ccc(OC)cc3)cc3c2CC(C)(C)CC3=O)cc1,"inconclusive: 25.1 µM [activator, partial curve, poor fit]",–
COc1ccc(-c2csc3[nH]c(=S)n(-c4ccccc4)c(=O)c23)cc1OC,"inconclusive: 11.2 µM [activator, partial curve]",–
CCOCCCNC(=O)C1CCN(S(=O)(=O)c2cc3c(cc2Br)CCN3C(=O)CC)CC1,–,inactive: 15.2%
O=C(NCc1ccco1)c1cc(-c2ccccc2)c(N2CCOCC2)s1,–,inactive: 13.4%
CCOc1cccc(NC(=O)CSc2ncc(-c3ccc(Cl)cc3)[nH]2)c1,–,inactive: 17.4%
Cc1ccc(-n2nc3c(=O)n(CC(=O)NCCc4ccc(Cl)cc4)nc(C)c3c2C)cc1,–,inactive: 5.59%
CC1(CCc2ccccc2)NC(=O)N(CC(=O)N2CCc3ccccc32)C1=O (stereo unspecified),"inconclusive: 22.4 µM [activator, partial curve, poor fit]",–
Cc1oc(-c2ccc(C(=O)N(C)Cc3ccccc3)cc2)nc1CN1CCc2ccccc21,active: 20 µM,–
CC(C)(C)S(=O)N1Cc2cc(CO)ccc2[C@H]1CCO (stereo partly specified),"inconclusive: 31.6 µM [activator, partial curve, poor fit]",–
